From the supplement of paper PMC12889115
The list shows a part of the results. Rule as the data show it: active = 25% or less and inactive = the rest. Single values are uncertain, as repeats are few or missing.

How the values were obtained:
[1] = test system: Salmonella enterica serovar Typhimurium SL1344; assay: bacterial growth OD600 after 18 h in MHB with 0.5 µg/mL polymyxin B; higher = more bacterial growth (less inhibition); conditions: 25 µM; polymyxin B 0.5 µg/mL; system: broth
Protocol: (§1)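 Secondary screen of the 553 primary hits at 25 µM. (i) S. Typhimurium SL1344 grown in Mueller-Hinton broth with 0.5 µg/mL polymyxin B, OD600 read after 18 h. (ii) SAFIRE assay: RAW 264.7 macrophages infected with S. Typhimurium sifB::gfp (MOI 30); compound added 2 h post-infection; cells fixed at 18 h; GFP-positive pixel fraction per macrophage imaged by confocal microscopy and expressed as % of DMSO control.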

[2] = test system: Salmonella enterica serovar Typhimurium SL1344; assay: intramacrophage bacterial GFP load (SAFIRE), percent of DMSO control (% of DMSO); higher = more intracellular bacteria (less inhibition); conditions: 25 µM; system: infected RAW 264.7 macrophages
Protocol: as §1
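For bacterial growth OD600 after 18 h in MHB with 0.5 µg/mL polymyxin B in this document: polymyxin B level opens the outer membrane while sparing the inner membrane, with novobiocin wells as reference growth inhibitor.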
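For intramacrophage bacterial GFP load (SAFIRE), percent of DMSO control in this document: compounds tested were the hits of an earlier 50 µM broth growth screen of a drug-like diversity library run with polymyxin B.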

Compound: O=C(/C=C/c1ccco1)N1CCC2(CCCN(CCc3ccccc3)C2)C1 (stereo not drawn)
- bacterial growth OD600 [1]: 0.01
- intramacrophage bacterial GFP load [2]: inactive: 83.7

Compound: O=C(c1cnn2cccnc12)N(Cc1ccncc1)Cc1cccc(OCCc2ccc(F)cc2)c1
- bacterial growth OD600 [1]: -0.001
- intramacrophage bacterial GFP load [2]: inactive: 49.9

Compound: CC1CN(Cc2ccsc2)Cc2cc(Cl)ccc2O1 (stereo not drawn)
- bacterial growth OD600 [1]: 0.196
- intramacrophage bacterial GFP load [2]: inactive: 121

Compound: COc1ccc(-c2cnnc(NCc3c[nH]nc3-c3ccc(F)cc3)n2)cc1OC
- bacterial growth OD600 [1]: 0.005
- intramacrophage bacterial GFP load [2]: inactive: 160

Compound: Cc1cc(C(=O)N(Cc2ccncc2)Cc2cccc(OCCc3ccc(F)cc3)c2)n(C)n1
- bacterial growth OD600 [1]: 0.004
- intramacrophage bacterial GFP load [2]: inactive: 53.2

Compound: COc1ccc2c(c1)SC(c1ccc(F)c(F)c1)CCN2CC1CC1 (stereo not drawn)
- bacterial growth OD600 [1]: -0.002
- intramacrophage bacterial GFP load [2]: inactive: 63.2

Compound: CCCCn1c(CN2CCCC(C(C)=O)C2)cnc1S(=O)(=O)CCCC(C)C (stereo not drawn)
- bacterial growth OD600 [1]: 0.018
- intramacrophage bacterial GFP load [2]: active: 22.1

Compound: CC[C@H](C)[C@H](NC(=O)CCC1(Cc2ccc(OC)cc2F)CCC(=O)N1)C(=O)OC (stereo partly drawn)
- bacterial growth OD600 [1]: 0.483
- intramacrophage bacterial GFP load [2]: inactive: 117

Compound: CCOC(=O)C1(Cc2cccc(Cl)c2)CCCN(C(=O)c2cc(CC)on2)C1 (stereo not drawn)
- bacterial growth OD600 [1]: 0.02
- intramacrophage bacterial GFP load [2]: inactive: 81.6

Compound: Cc1ccsc1C(=O)N(Cc1ccc(OCc2ccc3c(c2)OCO3)cc1)CC1CCCO1 (stereo not drawn)
- bacterial growth OD600 [1]: -0.003
- intramacrophage bacterial GFP load [2]: inactive: 76.8

Compound: CCOc1ccc2nc(N3CCC(C(=O)N4CCN(C5CCCCC5)CC4)CC3)nc(C)c2c1
- bacterial growth OD600 [1]: 0.592
- intramacrophage bacterial GFP load [2]: active: 21.6

Compound: Cc1nc(N2CCCCCCC2)ncc1C(C)NCc1ccsc1 (stereo not drawn)
- bacterial growth OD600 [1]: 0.002
- intramacrophage bacterial GFP load [2]: active: 2.15

Compound: Cc1ccc2c(c1)CN(Cc1cccnc1)CC(c1ccsc1)O2 (stereo not drawn)
- bacterial growth OD600 [1]: 0.013
- intramacrophage bacterial GFP load [2]: inactive: 80.7

Compound: CC(C)CCN(C)Cc1cnc(S(=O)(=O)C(C)C)n1CCc1ccccc1
- bacterial growth OD600 [1]: 0.011
- intramacrophage bacterial GFP load [2]: active: 14.3

Compound: Cc1ccccc1CC1(CO)CCCN(Cc2ccccc2C(F)(F)F)C1 (stereo not drawn)
- bacterial growth OD600 [1]: 0.001
- intramacrophage bacterial GFP load [2]: inactive: 72

Compound: COc1ccc(CC2(CCC(=O)NC3CCCc4ccccc43)CCC(=O)N2)c2ccccc12 (stereo not drawn)
- bacterial growth OD600 [1]: -0.002
- intramacrophage bacterial GFP load [2]: inactive: 78.7

Compound: COc1ccc(CN(Cc2ccncc2)C(=O)c2ccc(-c3cccc(F)c3)cc2)cc1OC1CCCC1
- bacterial growth OD600 [1]: 0.008
- intramacrophage bacterial GFP load [2]: inactive: 95.3

Compound: CN(Cc1ccc(F)cc1)c1ccc(OCC(=O)NCC2(N3CCOCC3)CCCCC2)nn1
- bacterial growth OD600 [1]: 0.553
- intramacrophage bacterial GFP load [2]: inactive: 50.4

Compound: COc1ccccc1OC1CCN(c2nncc(-c3ccccc3C)n2)CC1
- bacterial growth OD600 [1]: -0.025
- intramacrophage bacterial GFP load [2]: inactive: 103

Compound: COc1ccc(CCC(=O)N2CCC(CO)(Cc3ccc(Cl)cc3)CC2)cc1
- bacterial growth OD600 [1]: 0.003
- intramacrophage bacterial GFP load [2]: inactive: 171

Compound: O=C(/C=C/c1ccccc1)N1CCCC(c2nc(-c3ccncc3)ncc2-c2ccccc2)C1 (stereo not drawn)
- bacterial growth OD600 [1]: -0.001
- intramacrophage bacterial GFP load [2]: inactive: 81.1

Compound: CCN(CC)c1ccc(C(=O)N2CCCCC2CCn2cccn2)cn1 (stereo not drawn)
- bacterial growth OD600 [1]: 0.668
- intramacrophage bacterial GFP load [2]: inactive: 200

Compound: CN(c1ncccc1CNS(C)(=O)=O)C1CCCCC1
- bacterial growth OD600 [1]: 0.635
- intramacrophage bacterial GFP load [2]: inactive: 98.5

Compound: O=C(c1coc(COc2cccc(F)c2)n1)N1CC[C@@H]2CCCC[C@H]2C1
- bacterial growth OD600 [1]: 0.007
- intramacrophage bacterial GFP load [2]: active: 8.5

Compound: CCC(C)C(=O)N1CCc2ccc(NC(=O)CCc3ccc(C)cc3)cc2C1 (stereo not drawn)
- bacterial growth OD600 [1]: 0.155
- intramacrophage bacterial GFP load [2]: inactive: 178

Compound: CN(C(=O)c1ccco1)C(Cc1ccc(F)cc1F)C1CCN(Cc2cc(Cl)ccc2O)CC1 (stereo not drawn)
- bacterial growth OD600 [1]: 0.002
- intramacrophage bacterial GFP load [2]: active: 1.82

Compound: OCC1(Cc2cccc(Cl)c2)CCCN(Cc2ccc(F)c(F)c2)C1 (stereo not drawn)
- bacterial growth OD600 [1]: 0.001
- intramacrophage bacterial GFP load [2]: active: 15.7

Compound: CN(Cc1cn(C)nc1-c1ccc2c(c1)OCCO2)Cc1cccc2ncccc12
- bacterial growth OD600 [1]: 0.635
- intramacrophage bacterial GFP load [2]: inactive: 108

Compound: CC1CCN(C(=O)CC2(c3ccc(-c4ccccc4)cc3)CC(=O)N(C)C2=O)CC1 (stereo not drawn)
- bacterial growth OD600 [1]: 0.001
- intramacrophage bacterial GFP load [2]: inactive: 124
